Publication PMC4336329 (PLoS ONE, 2015)
Screen size: about 310,000 compounds; about 14,000 (4.5%) showed an effect of 50% or more. The effect is printed as a negative number. This is one part of the list.

Molecular target: human ether-à-go-go-related gene (hERG) potassium channel (human, UniProt Q12809)
Assay: primary screen, population patch clamp on CHO cells stably expressing hERG
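Note: peak tail current of the secondary pulse compared with the same well before compound.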

human ether-à-go-go-related gene (hERG) potassium channel, sequence (Q12809 whole entry, looked up): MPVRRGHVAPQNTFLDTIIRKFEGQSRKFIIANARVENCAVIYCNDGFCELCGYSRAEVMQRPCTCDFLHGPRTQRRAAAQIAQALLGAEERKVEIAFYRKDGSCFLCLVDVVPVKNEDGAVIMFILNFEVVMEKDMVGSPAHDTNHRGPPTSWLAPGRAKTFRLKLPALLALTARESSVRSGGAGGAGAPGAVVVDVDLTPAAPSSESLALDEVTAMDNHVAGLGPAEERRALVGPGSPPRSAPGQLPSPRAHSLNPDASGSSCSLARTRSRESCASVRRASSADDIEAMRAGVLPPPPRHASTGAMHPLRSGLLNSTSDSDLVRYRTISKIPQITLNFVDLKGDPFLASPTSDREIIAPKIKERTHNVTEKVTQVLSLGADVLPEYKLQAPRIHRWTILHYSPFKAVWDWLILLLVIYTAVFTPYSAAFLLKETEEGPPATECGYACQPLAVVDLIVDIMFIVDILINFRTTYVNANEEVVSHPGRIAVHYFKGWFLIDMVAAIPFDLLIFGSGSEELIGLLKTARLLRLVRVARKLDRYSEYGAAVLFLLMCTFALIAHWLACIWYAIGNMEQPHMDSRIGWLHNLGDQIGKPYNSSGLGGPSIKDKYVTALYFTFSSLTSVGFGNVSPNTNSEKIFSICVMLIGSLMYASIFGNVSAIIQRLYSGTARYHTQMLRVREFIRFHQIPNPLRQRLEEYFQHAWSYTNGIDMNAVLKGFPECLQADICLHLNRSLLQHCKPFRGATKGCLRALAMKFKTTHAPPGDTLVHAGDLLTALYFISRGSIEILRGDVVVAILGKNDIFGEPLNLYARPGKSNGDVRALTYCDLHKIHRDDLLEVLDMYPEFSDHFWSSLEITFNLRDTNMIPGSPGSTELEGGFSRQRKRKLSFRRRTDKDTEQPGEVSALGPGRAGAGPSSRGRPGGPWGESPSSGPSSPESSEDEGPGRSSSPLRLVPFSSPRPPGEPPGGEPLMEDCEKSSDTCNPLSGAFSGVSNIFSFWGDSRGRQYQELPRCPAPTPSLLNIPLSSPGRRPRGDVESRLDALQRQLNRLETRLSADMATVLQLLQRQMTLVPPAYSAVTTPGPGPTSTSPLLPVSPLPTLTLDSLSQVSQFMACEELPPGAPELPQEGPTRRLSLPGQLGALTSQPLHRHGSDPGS

**Q.** With `CCOC(=O)N1CCN(Cc2nc3c(c(=O)n(C)c(=O)n3C)n2Cc2cccc(C)c2)CC1` as the molecule, how does the “hERG current change (%, negative = inhibition) at 10uM” value read?
**A.** -30.1%

**Q.** With `CCOC(=O)C(N)CSC1CC(=O)N(CCc2ccccc2)C1=O.Cl` (centres unmarked) as the molecule, how does the “hERG current change (%, negative = inhibition) at 10uM” value read?
**A.** 10.9%

**Q.** `COc1cc(/C=N/n2cnnc2)ccc1OS(=O)(=O)c1ccccc1[N+](=O)[O-]` was tested. Which “hERG current change (%, negative = inhibition) at 10uM” value did it give?
**A.** -51%

**Q.** `COC(=O)c1c(N2C(=O)Nc3ccccc3N2O)sc2c1CCCC2` was tested. Which “hERG current change (%, negative = inhibition) at 10uM” value did it give?
**A.** 6.68%

**Q.** How did the “hERG current change (%, negative = inhibition) at 10uM” value turn out when `COc1nc(NC(C)C)nc(NC(C)C)n1` was run?
**A.** 2.02%

**Q.** For `CCOC(=O)c1cnc(-n2nc(C)cc2C)nc1NCCc1ccccc1`, which “hERG current change (%, negative = inhibition) at 10uM” value is on record?
**A.** -51.6%

**Q.** Which “hERG current change (%, negative = inhibition) at 10uM” value does the source give for `Cc1cccc(C(=O)NCCC(=O)Nc2nc(C)c(Cc3ccc4c(c3)OCO4)s2)c1` here?
**A.** 4.11%

**Q.** For `CCOc1ccccc1NC(=S)/C(=C(\[O-])c1ccc2c(c1)OCCO2)[n+]1ccc(CC)cc1`, which “hERG current change (%, negative = inhibition) at 10uM” value is on record?
**A.** -16%

**Q.** How did the “hERG current change (%, negative = inhibition) at 10uM” value turn out when `O=C(O)CC(NC(=O)CC(c1ccccc1)c1ccccc1)c1cccc([N+](=O)[O-])c1` (centres unmarked) was run?
**A.** 17.5%

**Q.** With `COCCNC(=S)N/N=C(\C)c1ccc(Cl)c(Cl)c1Cl` as the molecule, how does the “hERG current change (%, negative = inhibition) at 10uM” value read?
**A.** 12%

**Q.** `CCCn1c(SCC(=O)NCc2ccccc2)n[nH]c1=O` was tested. Which “hERG current change (%, negative = inhibition) at 10uM” value did it give?
**A.** 7.49%

**Q.** With `Cc1nc2ccccc2n1CC(=O)OCC(=O)NC1CC1` as the molecule, how does the “hERG current change (%, negative = inhibition) at 10uM” value read?
**A.** 29.4%

**Q.** Which “hERG current change (%, negative = inhibition) at 10uM” value does the source give for `CC1(c2cccc(Br)c2)NC(=O)N(CC(=O)NC2CCCCC2)C1=O` (centres unmarked) here?
**A.** -7.24%

**Q.** For `COC(=O)C(CC(=O)c1ccc(Br)cc1)n1nc(C)cc1C` (centres unmarked), which “hERG current change (%, negative = inhibition) at 10uM” value is on record?
**A.** 5.79%

**Q.** With `CCCc1ccc(OCC(O)CN2CCN(CCO)CC2)cc1.Cl` (centres unmarked) as the molecule, how does the “hERG current change (%, negative = inhibition) at 10uM” value read?
**A.** -13.7%

**Q.** `Cc1ccc(N=C/C(C(=O)C(F)(F)F)=C(\O)c2ccco2)cc1Cl` was tested. Which “hERG current change (%, negative = inhibition) at 10uM” value did it give?
**A.** -7.36%

**Q.** `O=[N+]([O-])c1ccc(N2CCNCC2)cc1NCC1CCCO1` (centres unmarked) was tested. Which “hERG current change (%, negative = inhibition) at 10uM” value did it give?
**A.** -22.1%

**Q.** For `O=C(C[n+]1cccc2ccccc21)c1ccc(Cl)cc1.[Br-]`, which “hERG current change (%, negative = inhibition) at 10uM” value is on record?
**A.** -23.7%

**Q.** With `S=c1sc(SCCOc2ccccc2)nn1-c1ccccc1` as the molecule, how does the “hERG current change (%, negative = inhibition) at 10uM” value read?
**A.** 7.64%

**Q.** `CCn1c(SCC(=O)N/N=C/C=C\c2ccco2)nc2ccccc21` was tested. Which “hERG current change (%, negative = inhibition) at 10uM” value did it give?
**A.** -9.42%

**Q.** With `CC1(C)CC(CNCCC(c2ccc(F)cc2)c2ccco2)CCO1` (centres unmarked) as the molecule, how does the “hERG current change (%, negative = inhibition) at 10uM” value read?
**A.** -62.5%

**Q.** How did the “hERG current change (%, negative = inhibition) at 10uM” value turn out when `CC(C)NC(=O)c1onc(CSc2ccccc2)c1C(=O)O` was run?
**A.** 8.65%

**Q.** For `O=C(Nn1cnnc1)c1ccc(Br)s1`, which “hERG current change (%, negative = inhibition) at 10uM” value is on record?
**A.** 13.9%

**Q.** `O=C(COc1ccc(Br)cc1CNC1CCCCC1)NCCc1ccccc1` was tested. Which “hERG current change (%, negative = inhibition) at 10uM” value did it give?
**A.** -77%

**Q.** For `NC(=O)COC(=O)c1ccc(S(=O)(=O)NCc2ccco2)cc1`, which “hERG current change (%, negative = inhibition) at 10uM” value is on record?
**A.** 8.43%

**Q.** With `CCc1cc(C(=O)N/N=C/c2ccc(O)cc2)c2ccccc2n1` as the molecule, how does the “hERG current change (%, negative = inhibition) at 10uM” value read?
**A.** 21.4%

**Q.** Which “hERG current change (%, negative = inhibition) at 10uM” value does the source give for `COc1ccc(NC(=O)C/C(C)=N/NC(=O)c2ccccn2)c(OC)c1` here?
**A.** 8.89%

**Q.** For `CCOC(=O)c1c(NC(=O)c2cccc([N+](=O)[O-])c2C(=O)O)sc2c1CCCC2`, which “hERG current change (%, negative = inhibition) at 10uM” value is on record?
**A.** 14.8%

**Q.** Which “hERG current change (%, negative = inhibition) at 10uM” value does the source give for `Fc1ccc(-c2csc3ncnc(N4CCc5ccccc5C4)c23)cc1` here?
**A.** 5.91%

**Q.** Which “hERG current change (%, negative = inhibition) at 10uM” value does the source give for `Cc1ccc(/C=N/Nc2nnc(Cc3ccccc3)c(=O)[nH]2)o1` here?
**A.** 10.7%

**Q.** Which “hERG current change (%, negative = inhibition) at 10uM” value does the source give for `Cc1cccc(OCC(=O)NNc2c3ccccc3nc3ccccc23)c1` here?
**A.** -5.54%

**Q.** For `O=C(Nc1nc2ccccc2s1)c1c(F)cccc1Cl`, which “hERG current change (%, negative = inhibition) at 10uM” value is on record?
**A.** 12.1%

**Q.** How did the “hERG current change (%, negative = inhibition) at 10uM” value turn out when `CCOc1ccc(N2C(=O)CC(Sc3ccccc3C(=O)O)C2=O)c([N+](=O)[O-])c1` (centres unmarked) was run?
**A.** 45.4%

**Q.** How did the “hERG current change (%, negative = inhibition) at 10uM” value turn out when `Cc1cccc(NC(=O)CSc2nnc(-c3ccccc3Br)o2)c1C` was run?
**A.** 0.638%

**Q.** With `O=C(CSc1ncc(C(=O)O)n1-c1ccc(F)cc1)NCc1ccc2c(c1)OCO2` as the molecule, how does the “hERG current change (%, negative = inhibition) at 10uM” value read?
**A.** 35.8%

**Q.** How did the “hERG current change (%, negative = inhibition) at 10uM” value turn out when `O=C(CN(C(=O)CCC(=O)Nc1ccccn1)c1cccc(F)c1)NCc1ccco1` was run?
**A.** 12.3%

**Q.** `Cc1cc(C(C#N)c2ccc(Cl)cc2)c(Cl)cc1NC(=O)c1cc(I)cc(I)c1O` (centres unmarked) was tested. Which “hERG current change (%, negative = inhibition) at 10uM” value did it give?
**A.** 8.79%

**Q.** Which “hERG current change (%, negative = inhibition) at 10uM” value does the source give for `Cc1cccc(C)c1NC(=O)C(C)Sc1n[nH]c(-c2ccncc2)n1` (centres unmarked) here?
**A.** 10.7%

**Q.** How did the “hERG current change (%, negative = inhibition) at 10uM” value turn out when `Cc1ccc(C)c(OCCn2cc(/C=C(\C#N)C(=O)NCC3CCCO3)c3ccccc32)c1` (centres unmarked) was run?
**A.** 5.38%

**Q.** With `Cc1ccc(-n2c([O-])nc(-[n+]3ccccc3)c2C=O)cc1` as the molecule, how does the “hERG current change (%, negative = inhibition) at 10uM” value read?
**A.** 11.8%

**Q.** With `Cc1ccc(CN2CCSc3ccc(C(=O)NCc4ccccn4)cc32)cc1` as the molecule, how does the “hERG current change (%, negative = inhibition) at 10uM” value read?
**A.** -18.1%

**Q.** Which “hERG current change (%, negative = inhibition) at 10uM” value does the source give for `COc1ccc(NC(=O)Cn2c(=O)n(CC3CCCO3)c(=O)c3cc(OC)c(OC)cc32)c(OC)c1` (centres unmarked) here?
**A.** -22.2%

**Q.** How did the “hERG current change (%, negative = inhibition) at 10uM” value turn out when `COc1ccccc1OC(C)C(=O)N1CC(=O)Nc2ccccc21` (centres unmarked) was run?
**A.** 15.8%

**Q.** Which “hERG current change (%, negative = inhibition) at 10uM” value does the source give for `CSCCC(NS(=O)(=O)c1ccccc1F)C(=O)NCC(c1ccc(F)cc1)N1CCOCC1` (centres unmarked) here?
**A.** -1.67%
